Source: PubChem BioAssay (Tox21)
Values joined by “and” are separate entries in the source; they are usually repeats but may differ in a detail not shown here. Identical values can stand only once. The inconclusive results got no clear call from the source; some entries with a clear call stand among them for comparison. For some assays here: A potency beside an inconclusive call is a rough fit, not a confirmed value. Active and inactive are the calls of the source. Unless noted, calls follow the shape of the dose curve; as a rule, active = well fitted curve in the direction sought with a large enough effect in the repeat runs; inconclusive = weak or mixed curves; inactive = no such curve, though single readings can be large; an effect the other way counts as inactive or inconclusive.

How the values were obtained:
[1] = target: Aryl hydrocarbon receptor (Homo sapiens) (UniProt P35869); assay: qHTS assay to identify small molecule that activate the aryl hydrocarbon receptor (AhR) signaling pathway (AID 743085); also: potency is read from the fitted curve at half-maximal effect; nearly all actives have a fitted effect of over 15% in size
In short: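 HepG2 cells (HG2L7.5c1) stably carrying a firefly luciferase reporter driven by 20 dioxin responsive elements were exposed to compound for 24 h at 37C after a 5 h settling period; luminescence rise (ONE-Glo) indicated activation.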

[2] = qHTS assay to identify small molecule that activate the aryl hydrocarbon receptor (AhR) signaling pathway - cell viability counter screen (AID 743086); also: potency is read from the fitted curve at half-maximal effect; nearly all actives have a fitted effect of over 45% in size
In short: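 HepG2-AhR-luc (HG2L7.5c1) cells, 4000/well, treated 24 h at 37 C with compound; viability measured as CellTiter-Fluor fluorescence after 30 min in the same wells as the luciferase read.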

[3] = target: Peroxisome proliferator-activated receptor gamma (Homo sapiens) (UniProt P37231); assay: qHTS assay to identify small molecule agonists of the peroxisome proliferator-activated receptor gamma (PPARg) signaling pathway (AID 743094; active = well fitted activation curve with a large enough effect in the signal ratio in the repeat runs, not every such curve was filed as active; inconclusive = weak or mixed curves, or effect the other way; inactive = no such curve, though single readings can be large or run the other way; the % refers to the signal ratio; also: potency is read from the fitted curve at half-maximal effect; as to activation: % is scaled to controls: 0 for no effect and ±100 for the full control effect); settings: HEK293H PPARg-UAS-bla, beta-lactamase FRET ratio, 17 h; activation: at 57 µM (top of the series) unless noted
In short: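 Stably transfected HEK293H cells (GeneBLAzer PPARg UAS-bla) were incubated with test substances for 17 h at 37C after a 5 h pre-incubation; beta-lactamase activity was then detected by FRET substrate fluorescence.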

[4] = qHTS assay for small molecule agonists of the antioxidant response element (ARE) signaling pathway (AID 743202; active = well fitted activation curve with a large enough effect in the signal ratio in the repeat runs, not every such curve was filed as active; inconclusive = weak or mixed curves, or effect the other way; inactive = no such curve, though single readings can be large or run the other way; the % refers to the signal ratio; also: potency is read from the fitted curve at half-maximal effect; as to activation: % is scaled to controls: 0 for no effect and ±100 for the full control effect); settings: HepG2 ARE-bla reporter, beta-lactamase FRET, 16 h; activation: at 73.3 µM (top of the series) unless noted
In short: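 ARE-bla HepG2 cells (beta-lactamase reporter under the antioxidant response element), plated 5 hours, then exposed to compounds 16 hours at 37 C. LiveBLAzer B/G FRET substrate added for 2 hours at room temperature; fluorescence intensity read.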

[5] = qHTS assay for small molecule agonists of the antioxidant response element (ARE) signaling pathway - cell viability counter screen (AID 743203; calls by dose curve; also: potency is read from the fitted curve at half-maximal effect; nearly all actives have a fitted effect of over 55% in size); settings: ARE-bla HepG2 viability, CellTiter-Glo luminescence, 16 h; viability change, negative = cytotoxic: at 73.3 µM (top of the series)
In short: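 Cells (ARE-bla HepG2, 2,000/well) receive DMSO-dissolved compounds after a 5 hrs rest. Plates incubate 16 hrs at 37C/5% CO2. CellTiter-Glo luminescence is then recorded after 30 min at room temperature.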

[6] = qHTS assay to identify small molecule agonists of the peroxisome proliferator-activated receptor delta (PPARd) signaling pathway - cell viability counter screen (AID 743211); settings: PPARd-bla HEK293H viability, CellTiter-Glo luminescence, 17 h; activity change, negative = cytotoxicity: at 62.6 µM (top of the series) unless noted; also: potency is read from the fitted curve at half-maximal effect; nearly all actives have a fitted effect of over 55% in size
In short: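 PPARd-bla HEK293H cells (UAS-beta-lactamase reporter) were treated with compounds for 17 h at 37 C. Viability was then read in the same wells by CellTiter-Glo luminescence after 30 min at room temperature.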

[7] = qHTS assay to identify small molecule antagonists of the peroxisome proliferator-activated receptor delta (PPARd) signaling pathway - cell viability counter screen (AID 743213); settings: PPARd-bla HEK293H viability, CellTiter-Glo luminescence, 17 h; viability change, negative = cytotoxic: at 62 µM (top of the series) unless noted; also: potency is read from the fitted curve at half-maximal effect; nearly all actives have a fitted effect of over 50% in size
In short: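 Agonist-stimulated (L165041, 300 nM final) HEK293H PPARd UAS-bla cells are exposed to compounds for 17 h at 37 C, and ATP-based luminescence (CellTiter-Glo) from the same wells reports cytotoxicity.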

[8] = target: Peroxisome proliferator-activated receptor delta (Homo sapiens) (UniProt Q03181); assay: qHTS assay to identify small molecule antagonists of the peroxisome proliferator-activated receptor delta (PPARd) signaling pathway (AID 743215; active = well fitted inhibition curve with a large enough effect in the signal ratio in the repeat runs, not every such curve was filed as active; inconclusive = weak or mixed curves, or effect the other way; inactive = no such curve, though single readings can be large or run the other way; the % refers to the signal ratio; also: potency is read from the fitted curve at half-maximal effect); settings: HEK293H PPARd-UAS-bla, beta-lactamase FRET ratio, antagonist, 17 h; ratio activity, negative = inhibition: at 62 µM (top of the series) unless noted
In short: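 Antagonist-mode beta-lactamase reporter screen: HEK293H cells with UAS-bla under PPARd control, stimulated by 300 nM L165041 (final) alongside test compound for 17 h at 37 C, then FRET fluorescence after 2 h substrate incubation.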

[9] = target: Bile acid receptor (Homo sapiens) (UniProt Q96RI1); assay: qHTS assay to identify small molecule antagonists of the farnesoid-X-receptor (FXR) signaling pathway (AID 743217; active = well fitted inhibition curve with a large enough effect in the signal ratio in the repeat runs, not every such curve was filed as active; inconclusive = weak or mixed curves, or effect the other way; inactive = no such curve, though single readings can be large or run the other way; the % refers to the signal ratio; also: potency is read from the fitted curve at half-maximal effect); settings: HEK293T FXR-UAS-bla, beta-lactamase ratio, CDCA-stimulated, 16 h; activity change, negative = inhibition: at 62.6 µM (top of the series) unless noted
In short: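 Beta-lactamase reporter under UAS control in HEK 293T cells; compound exposure 16 h at 37 °C in the presence of chenodeoxycholic acid (50 uM final); signal from B/G FRET substrate after 2 h at room temperature.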

[10] = qHTS assay to identify small molecule agonists of the farnesoid-X-receptor (FXR) signaling pathway - cell viability counter screen (AID 743218); settings: FXR-bla HEK293T viability, CellTiter-Glo luminescence, 16 h; viability change, negative = cytotoxic: at 62.6 µM (top of the series) unless noted; also: potency is read from the fitted curve at half-maximal effect; nearly all actives have a fitted effect of over 45% in size
In short: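 In GeneBLAzer FXR-UAS-bla HEK 293T cells, compounds act for 16 h at 37 C. Cell viability is then scored in the reporter wells by CellTiter-Glo, 30 min at RT, luminescence.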

[11] = qHTS assay to identify small molecule antagonists of the farnesoid-X-receptor (FXR) signaling pathway - cell viability counter screen (AID 743221; active = well fitted cell-killing curve with a large enough effect in the repeat runs, not every such curve was filed as active; inconclusive = weak or mixed curves, or effect the other way; inactive = no such curve, though single readings can be large or run the other way; also: potency is read from the fitted curve at half-maximal effect; nearly all actives have a fitted effect of over 50% in size); settings: FXR-bla HEK293T viability, CellTiter-Glo luminescence, 16 h; activity change, negative = cytotoxicity: at 62.6 µM (top of the series) unless noted
In short: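 FXR-UAS-bla HEK 293T cells were treated with test compounds plus chenodeoxycholic acid (50 uM final) for 16 h at 37 C. Cell viability in the same wells was then read as CellTiter-Glo luminescence after 30 min at room temperature.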

[12] = target: Vitamin D3 receptor (Homo sapiens) (UniProt P11473); assay: qHTS assay to identify small molecule agonists of the vitamin D receptor (VDR) signaling pathway (AID 743222; calls by dose curve; also: potency is read from the fitted curve at half-maximal effect); settings: HEK293T VDR-UAS-bla, beta-lactamase FRET ratio, 16 h; activation: at 63.5 µM (top of the series) unless noted
In short: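 Agonist activity measured in VDR-bla reporter cells. Exposure 16 h, 37C, 5% CO2; detection by B/G FRET substrate, 2 h RT.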

[13] = target: Vitamin D3 receptor (Homo sapiens) (UniProt P11473); assay: qHTS assay to identify small molecule antagonists of the vitamin D receptor (VDR) signaling pathway (AID 743223; active = well fitted inhibition curve with a large enough effect in the signal ratio in the repeat runs, not every such curve was filed as active; inconclusive = weak or mixed curves, or effect the other way; inactive = no such curve, though single readings can be large or run the other way; the % refers to the signal ratio; also: potency is read from the fitted curve at half-maximal effect); settings: VDR-UAS-bla HEK293T, beta-lactamase FRET ratio, 16 h; activity change, negative = inhibition: at 61 µM (top of the series) unless noted
In short: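 VDR-bla cells were plated, incubated 4 h at 37C, then given compound and 1alpha,25-dihydroxyvitamin D3 (3 nM final). After 16 h at 37C, LiveBLAzer B/G FRET substrate was added for 2 h at room temperature and fluorescence read.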

[14] = qHTS assay to identify small molecule agonists of the vitamin D receptor (VDR) signaling pathway - cell viability counter screen (AID 743224); settings: VDR-bla HEK293T viability, CellTiter-Glo luminescence, 16 h; activity change, negative = cytotoxicity: at 62.6 µM (top of the series); also: potency is read from the fitted curve at half-maximal effect; nearly all actives have a fitted effect of over 50% in size
In short: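 VDR-bla cell line, quantitative HTS format; 16 h compound incubation (37C, 5% CO2); ATP-based CellTiter-Glo luminescence measured in the reporter assay wells.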

[15] = target: Peroxisome proliferator-activated receptor gamma (Homo sapiens) (UniProt P37231); assay: qHTS assay to identify small molecule antagonists of the peroxisome proliferator-activated receptor gamma (PPARg) signaling pathway (AID 743191; calls by dose curve; also: nearly all actives have a fitted effect of over 30% in size; also: potency is read from the fitted curve at half-maximal effect); settings: HEK293H PPARg-UAS-bla, beta-lactamase ratio, antagonist, 17 h; ratio activity, negative = inhibition: at 62.6 µM (top of the series) unless noted
In short: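 GeneBLAzer PPARg UAS-bla HEK293H cells, 5 h post-plating, exposed to compounds 17 h at 37C. LiveBLAzer B/G FRET substrate added for 1 h at room temperature; beta-lactamase reporter read by fluorescence intensity.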

[16] = qHTS assay to identify small molecule antagonists of the peroxisome proliferator-activated receptor gamma (PPARg) signaling pathway - cell viability counter screen (AID 743194); settings: PPARg-bla HEK293H viability, CellTiter-Glo luminescence, 17 h, co-treated with 50 nM rosiglitazone; activity change, negative = cytotoxicity: at 62.6 µM (top of the series) unless noted; also: potency is read from the fitted curve at half-maximal effect; nearly all actives have a fitted effect of over 55% in size
In short: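 Cytotoxicity counter screen in PPARg-bla HEK293H cells, same wells as reporter assay. Compounds plus 50 nM rosiglitazone (final) for 17 h at 37 C, then viability read by CellTiter-Glo luminescence.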

[17] = qHTS assay for small molecule activators of the heat shock response signaling pathway (AID 743210; active = well fitted activation curve with a large enough effect in the signal ratio in the repeat runs, with a control signal flat, not every such curve was filed as active; inconclusive = weak or mixed curves; the % refers to the signal ratio; also: % is scaled to controls: 0 for no effect and ±100 for the full control effect); settings: HeLa HSE-bla reporter, beta-lactamase ratio, 5 h; activation: at 62.6 µM (top of the series) unless noted
In short: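 HSE-bla HeLa cells (beta-lactamase reporter under heat shock response elements), plated overnight, then exposed to compounds 5 h at 37 C; LiveBLAzer B/G FRET substrate added, 2.5 h at room temperature, fluorescence intensity read.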

[18] = target: Peroxisome proliferator-activated receptor delta (Homo sapiens) (UniProt Q03181); assay: qHTS assay to identify small molecule agonists of the peroxisome proliferator-activated receptor delta (PPARd) signaling pathway (AID 743212; calls by dose curve; also: % is scaled to controls: 0 for no effect and ±100 for the full control effect); settings: HEK293H PPARd-UAS-bla, beta-lactamase FRET ratio, 17 h; activation: at 62.6 µM (top of the series) unless noted
In short: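 GeneBLAzer UAS-bla HEK293H cells carrying a PPARδ construct were exposed to compounds at 37 °C. Beta-lactamase activity was read by FRET fluorescence after 2 h at room temperature with LiveBLAzer B/G substrate.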

[19] = qHTS assay for small molecule activators of the heat shock response signaling pathway - cell viability counter screen (AID 743209); settings: HSE-bla HeLa viability, CellTiter-Glo luminescence, 5 h; activity change, negative = cytotoxicity: at 62.6 µM (top of the series) unless noted; also: potency is read from the fitted curve at half-maximal effect; nearly all actives have a fitted effect of over 50% in size
In short: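 Quantitative HTS format, Tox21 10K library. HeLa cells carrying an HSE-driven beta-lactamase reporter were treated 5 h at 37 C, then assessed for viability by CellTiter-Glo luminescence.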
Tags tell the direction and shape of the fitted curve or compound fluorescence and quenching.

UniProt P37231, sequence (P37231 whole entry, looked up): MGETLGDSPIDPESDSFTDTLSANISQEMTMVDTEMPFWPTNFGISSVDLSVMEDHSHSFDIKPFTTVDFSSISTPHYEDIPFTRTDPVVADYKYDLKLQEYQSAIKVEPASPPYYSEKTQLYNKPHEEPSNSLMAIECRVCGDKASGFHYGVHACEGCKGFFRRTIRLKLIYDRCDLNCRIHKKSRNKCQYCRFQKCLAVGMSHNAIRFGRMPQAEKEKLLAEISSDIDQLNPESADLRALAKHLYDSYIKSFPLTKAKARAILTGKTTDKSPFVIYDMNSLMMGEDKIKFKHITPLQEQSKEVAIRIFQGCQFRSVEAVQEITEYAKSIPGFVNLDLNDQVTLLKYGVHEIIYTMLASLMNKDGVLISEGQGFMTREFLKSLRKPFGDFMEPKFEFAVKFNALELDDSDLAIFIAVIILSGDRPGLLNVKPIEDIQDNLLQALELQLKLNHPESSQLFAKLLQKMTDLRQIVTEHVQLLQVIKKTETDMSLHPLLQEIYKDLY
UniProt P11473, sequence (P11473 whole entry, looked up): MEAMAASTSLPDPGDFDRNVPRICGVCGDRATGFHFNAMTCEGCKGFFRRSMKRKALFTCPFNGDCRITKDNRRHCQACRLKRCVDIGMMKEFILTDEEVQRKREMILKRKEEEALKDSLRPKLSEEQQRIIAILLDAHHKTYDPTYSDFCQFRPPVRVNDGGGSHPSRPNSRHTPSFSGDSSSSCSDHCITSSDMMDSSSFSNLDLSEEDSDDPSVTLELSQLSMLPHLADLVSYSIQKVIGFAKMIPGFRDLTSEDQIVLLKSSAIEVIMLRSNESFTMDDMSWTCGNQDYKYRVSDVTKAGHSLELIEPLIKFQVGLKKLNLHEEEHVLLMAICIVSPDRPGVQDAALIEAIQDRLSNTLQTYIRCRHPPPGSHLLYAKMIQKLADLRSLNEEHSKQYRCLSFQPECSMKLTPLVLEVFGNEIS
UniProt P35869, sequence (P35869 whole entry, looked up): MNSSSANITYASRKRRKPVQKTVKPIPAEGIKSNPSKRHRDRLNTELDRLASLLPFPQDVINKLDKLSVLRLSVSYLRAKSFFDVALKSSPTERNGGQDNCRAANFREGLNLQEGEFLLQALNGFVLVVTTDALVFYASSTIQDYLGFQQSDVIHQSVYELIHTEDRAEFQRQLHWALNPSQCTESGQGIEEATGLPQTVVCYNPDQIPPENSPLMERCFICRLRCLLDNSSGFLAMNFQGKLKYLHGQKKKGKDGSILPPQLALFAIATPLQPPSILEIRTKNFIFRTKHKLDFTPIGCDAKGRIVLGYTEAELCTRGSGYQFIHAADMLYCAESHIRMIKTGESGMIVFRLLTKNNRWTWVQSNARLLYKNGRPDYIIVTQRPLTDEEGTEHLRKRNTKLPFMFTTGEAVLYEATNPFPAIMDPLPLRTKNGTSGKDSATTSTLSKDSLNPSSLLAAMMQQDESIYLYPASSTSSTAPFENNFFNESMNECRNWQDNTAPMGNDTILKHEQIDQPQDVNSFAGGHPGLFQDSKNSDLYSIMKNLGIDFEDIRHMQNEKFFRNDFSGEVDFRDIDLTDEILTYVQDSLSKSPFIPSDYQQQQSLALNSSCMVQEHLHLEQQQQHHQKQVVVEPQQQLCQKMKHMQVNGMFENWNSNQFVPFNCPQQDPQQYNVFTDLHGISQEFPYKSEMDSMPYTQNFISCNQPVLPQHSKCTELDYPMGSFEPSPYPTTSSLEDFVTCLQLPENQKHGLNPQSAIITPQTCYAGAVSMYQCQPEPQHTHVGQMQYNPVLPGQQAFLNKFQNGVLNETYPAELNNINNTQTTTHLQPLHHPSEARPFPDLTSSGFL
UniProt Q96RI1, sequence (Q96RI1 whole entry, looked up): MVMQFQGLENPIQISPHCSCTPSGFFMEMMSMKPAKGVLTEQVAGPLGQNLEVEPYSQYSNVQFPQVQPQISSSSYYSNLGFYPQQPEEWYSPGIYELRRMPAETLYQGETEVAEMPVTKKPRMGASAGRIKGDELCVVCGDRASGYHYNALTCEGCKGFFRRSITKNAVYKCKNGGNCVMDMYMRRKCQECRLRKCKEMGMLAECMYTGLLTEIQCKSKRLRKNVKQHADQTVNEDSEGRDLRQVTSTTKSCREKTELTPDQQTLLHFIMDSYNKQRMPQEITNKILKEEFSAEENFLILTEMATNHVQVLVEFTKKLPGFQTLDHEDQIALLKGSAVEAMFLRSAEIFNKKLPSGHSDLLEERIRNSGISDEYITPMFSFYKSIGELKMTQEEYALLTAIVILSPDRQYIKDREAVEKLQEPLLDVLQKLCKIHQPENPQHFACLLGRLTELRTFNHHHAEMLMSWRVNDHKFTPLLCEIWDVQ
UniProt Q03181, sequence (Q03181 whole entry, looked up): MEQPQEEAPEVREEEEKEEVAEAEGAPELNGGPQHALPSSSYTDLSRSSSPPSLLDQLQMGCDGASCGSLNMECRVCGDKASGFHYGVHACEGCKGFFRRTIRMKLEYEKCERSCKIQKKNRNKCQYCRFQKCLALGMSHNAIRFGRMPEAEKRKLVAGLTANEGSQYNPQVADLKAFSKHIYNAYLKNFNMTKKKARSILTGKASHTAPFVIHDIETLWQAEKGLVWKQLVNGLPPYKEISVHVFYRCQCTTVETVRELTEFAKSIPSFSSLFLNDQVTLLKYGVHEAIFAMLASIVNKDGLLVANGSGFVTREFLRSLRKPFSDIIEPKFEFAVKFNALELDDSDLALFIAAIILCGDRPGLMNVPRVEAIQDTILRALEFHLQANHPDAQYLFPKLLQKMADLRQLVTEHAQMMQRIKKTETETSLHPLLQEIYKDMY

CN1CC(=O)N2[C@H](c3ccc4c(c3)OCO4)c3[nH]c4ccccc4c3C[C@@H]2C1=O
inconclusive: Potency [1] 26.6 µM [activator, partial curve, poor fit] | Potency [2] 33.5 µM [falling, partial curve, poor fit]
inactive: Potency [3]

Cc1ccc(N/N=c2\c(=O)cc/c(=N\Nc3ccc(S(=O)(=O)O)cc3)c2=O)c(C)c1
active: Potency [1] 8.63 µM
inactive: Potency [3]
inconclusive: Potency [2] 19.3 µM [falling, full curve]

Cc1nc(Nc2ncc(C(=O)Nc3c(C)cccc3Cl)s2)cc(N2CCN(CCO)CC2)n1
active: Potency [1] 1.19 µM | Potency [2] 9.44 µM | Potency [8] 0.473 µM
inconclusive: activation [4] -68.2% | Potency [5] 33.5 µM [cytotoxic] | Potency [6] 0.15 µM [cytotoxic, full curve] | Potency [7] 0.298 µM [cytotoxic, single point] | Potency [9] 16.8 µM [inhibitor, partial curve] | Potency [10] 2.37 µM [cytotoxic, partial curve, poor fit] | Potency [11] 23.7 µM [falling, partial curve, poor fit] | Potency [12] 0.0094 µM [rising, partial curve, poor fit] | Potency [13] 23.9 µM [rising, partial curve, poor fit] | Potency [14] 26.6 µM [cytotoxic, partial curve]

Oc1ccc2ccccc2c1N=Nc1ccccc1
inconclusive: Potency [1] 30.6 µM [activator, partial curve, poor fit] | activation [3] -10.4% | Potency [15] 49 µM [inhibitor, partial curve, poor fit] | ratio activity, negative = inhibition [15] -18% | Potency [4] 4.32 µM [full curve] and 2.17 µM [full curve] | activity change, negative = inhibition [9] -6.81%

O=C(O)c1cccc(-c2noc(-c3ccccc3F)n2)c1
inconclusive: Potency [1] 0.0298 µM [activator, full curve, poor fit] | activation [3] 0.104% | Potency [15] 18.8 µM [rising, partial curve, poor fit] | Potency [16] 23.7 µM [cytotoxic, partial curve] | Potency [4] 13.3 µM [rising, full curve, poor fit] | Potency [6] 18.8 µM [cytotoxic, partial curve] | Potency [10] 0.0211 µM [rising, full curve, poor fit] | activity change, negative = inhibition [13] 4.94%
active: Potency [11] 11.9 µM
inactive: Potency [17]

CCN1/C(=C/C=C/c2sc3ccccc3[n+]2CC)Sc2ccccc21
inconclusive: Potency [3] 30.1 µM [falling, single point] | Potency [15] 16.4 µM [inhibitor] | activation [18] -13.1% [at 29.1 µM] | Potency [7] 10.3 µM [cytotoxic, partial curve] | ratio activity, negative = inhibition [8] -56.9% [at 28.9 µM] | Potency [9] 16.4 µM [rising, single point] | Potency [10] 1.03 µM [cytotoxic, partial curve, poor fit] | Potency [11] 20.6 µM [falling, single point] | Potency [12] 16.4 µM [rising, partial curve, poor fit] | Potency [13] 0.0003 µM [falling, partial curve, poor fit]
active: Potency [1] 2.66 µM | Potency [2] 6.68 µM | Potency [16] 14.6 µM | Potency [4] 1.16 µM | Potency [6] 14.6 µM

Cc1ccc(N)cc1O
active: Potency [1] 15.7 µM | Potency [2] 61.1 µM | Potency [15] 49 µM
inconclusive: activation [3] -10.2% | Potency [4] 19.3 µM | Potency [19] 49 µM [cytotoxic] | Potency [6] 0.123 µM [cytotoxic, full curve, poor fit] | Potency [8] 34.7 µM [fluorescent, partial curve] | Potency [10] 61.1 µM [cytotoxic, single point] | Potency [12] 38.9 µM [fluorescent] | Potency [13] 0.616 µM [fluorescent, full curve, poor fit] | Potency [14] 1.23 µM [cytotoxic, full curve, poor fit]
